Experimental data reported in the RNAGym collection of RNA variant scans (doi:10.1093/nar/gkz1192).
The source gives no read counts; variants with many changes may rest on few reads.

B1: CPEB3 Ribozyme (parent)
chain: UAACAGGGGGCCACAGCAGAAGCGUUCACGUCGCAGCCCCUGUCAGAUUCUGGUGAAUCUGCGAAUUCUGCUGUAUAUCUC

Variants of: B1
Assay: self-cleavage, relative activity (ratio to wild type); higher = more cleavage; in vitro, sequencing
Method in brief: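 Relative activity compares each variant's cleaved/total read fraction with that of the unmutated ribozyme. To get these fractions, barcoded CPEB3 ribozyme libraries from rounds of error-prone PCR were transcribed with T7 RNA polymerase for 5 hours at 37°C and then given 15 min of DNase I treatment before EDTA was added. The RNAs were reverse transcribed with template switching and sequenced on Illumina, and DNA sequencing linked barcodes to variants. A minimum of 5 reads applied, and three batches were averaged.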

Variant	self-cleavage
G22A U31A A45G A56U G61A U69C	0.08
G22A U31C A35G U49C U60C	0.07
G22A U31C U54A U60C	0.19
G22A U41A A45G	0.12
G22A U41A A56G U58C U69C U72C U78C	0.07
G22A U43A A45U A47G A56G U60A	0.05
G22A U43C U48C U58C A64U	0.32
G22A U43C U72A	0.14
G22A U43G A57G C62G A77G	0.16
G22A U49C U69A	0.28
G22A U54A A65G	0.16
G22A U54C U76G A77G	0.09
G22A U60A G63A U67C U69C	0.08
G22C A28G U51A	0.18
G22C A47U U74A	0.16
G22C C39U A57G	0.12
G22C C39U A64U	0.14
G22C U25A G30C U31C U67C U76A U78A	0.05
G22C U25A U41C A56U A65U	0.1
G22C U25A U49C A77G	0.07
G22C U26C U41G A45G A57G	0.05
G22C U41A U54G	0.12
G22C U41C U51A A56G U72A U78C	0.06
G22C U48C U78A	0.13

Variant	self-cleavage
G22C U49A U58C	0.14
G22C U78A U80C	0.19
G22U A28G U49C U54C U60A A64G	0.05
G22U A28G U67A	0.06
G22U A35U U60A	0.13
G22U A47G U49G A56G U60G U67C U72C	0.06
G22U A57G U72C	0.25
G22U C32A U41C	0.13
G22U G30A U72A	0.23
G22U G33A U74G A75U	0.17
G22U G42U U69A	0.12
G22U U25C A28U U66C	0.12
G22U U26A A35G A56U	0.07
G22U U26C A35G A45U U49C	0.13
G22U U26C A45U U54C A56G U69A U76C	0.14
G22U U26C C32U U41C U51A U69C U72A	0.07
G22U U31C C50U	0.13
G22U U41A U72C	0.17
G22U U48C U69A	0.06
G22U U51G U72A U78C	0.08
G22U U54C G55A	0.15
G22U U54C U60C	0.06
C23A A28G A45U	0.14
C23A A28G U72G	0.14

Variant	self-cleavage
C23A A28U C38A U69G	0.1
C23A A45U U51C A64U U69C	0.07
C23A A47G U72A	0.12
C23A A47U U76A	0.23
C23A A57G U66C	0.13
C23A A65G U67A A75G U80C	0.04
C23A C27A U49C	0.32
C23A C32A A45G U48C	0.13
C23A C34G A75G	0.15
C23A C38A A56G U80C	0.22
C23A C40A G63C	0.07
C23A C40U A47U U72C	0.08
C23A C44U U60A U72C	0.16
C23A G24A C59A U78C	0.05
C23A G42C U72A U74C U80A	0.07
C23A G55C U69C	0.18
C23A U25C U26C	0.2
C23A U25G A28U U41A A65G	0.05
C23A U25G U51A	0.04
C23A U26A U54C	0.2
C23A U26A U69A	0.07
C23A U26C C39A	0.32
C23A U31A A47G U74C	0.12
C23A U31C A35G U67C	0.06

Variant	self-cleavage
C23A U31C G36C C40A A56G U60C	0.06
C23A U31C U41A U48C	0.11
C23A U31C U58A U69C U72A	0.07
C23A U31C U69C A75G	0.09
C23A U31C U80C	0.23
C23A U41A A56G	0.11
C23A U41A G52A A64G U66A C68U U69A	0.07
C23A U41C A47G U74C	0.16
C23A U41C C62A A77G	0.09
C23A U43A G61C U67C U80C	0.14
C23A U43C U48C A56G A57U	0.12
C23A U51A A56G A57U	0.16
C23A U51A U76C A77G	0.05
C23A U54A U58C A65C	0.09
C23A U60A U78A	0.08
C23A U67A A77U	0.09
C23A U67C U74C	0.1
C23A U67C U80C	0.18
C23G A28G U31C U51G U74A	0.99
C23G A28G U48C U54C U60A	0.07
C23G A28U C50U U54A U60A U78C	0.14
C23G A35G A64U	0.2
C23G A35G A65G	0.23
C23G A35U U51A G52A	0.07

Variant	self-cleavage
C23G A45G G63A U72C	0.54
C23G A56G U78C	0.09
C23G C29U U74C	0.1
C23G C32A C40A U49A	0.18
C23G C32G C40A	0.22
C23G C37U A56G U60G G63A A65U U74C	0.05
C23G C59A A64G C68G A77C	0.09
C23G C62A U80C	0.17
C23G G30A U31A U80C	0.14
C23G U25C A35G U69A U72A	0.05
C23G U25C C29G C40A	0.07
C23G U25C C39U A57G U66G G73A A75G	0.24
C23G U25C U78G	0.31
C23G U26A A28G A47G U51C	0.05
C23G U26A A35G U43A G52A U54A	0.07
C23G U26A A35G U51A U72G	0.09
C23G U26A A56U U80C	0.26
C23G U26A U31C G46A U69C	0.05
C23G U26C A57G	0.23
C23G U26C C27G U60C C79G	0.07
C23G U26C U43C U72G	0.19
C23G U31A A56G	0.15
C23G U31A U80C	0.1
C23G U31C A56G U72C U76A U78C	0.04

Variant	self-cleavage
C23G U31C C40G U69C	0.05
C23G U41C A45G	0.43
C23G U41C U49C U66A U76C	0.06
C23G U43A A45U G46U A75G	0.29
C23G U43A A64G U67C	0.11
C23G U48C U51C U54C	0.07
C23G U54A A57U U66A	0.19
C23G U60A U72C U78C U80A	0.05
C23U A28G A35C A47G	0.07
C23U A28G A45U	0.09
C23U A28G A47G A57G C68A	0.12
C23U A28G U67A	0.16
C23U A28G U69A	0.26
C23U A28U A65G	0.13
C23U A35C U43A A45U A57G U58A U60C	0.06
C23U A35C U58C	0.09
C23U A35G U41A G73A	0.24
C23U A35G U58C U66C U78C	0.13
C23U A35G U67C U76C	0.11
C23U A35U A57G U66C C81U	0.08
C23U A45G A56G A64G	0.17
C23U A45U G61A	0.18
C23U A45U U74A A77U	0.33
C23U A47G A57G U72A U80A	0.18

Variant	self-cleavage
C23U A47G U76A	0.11
C23U A57G C62U	0.1
C23U A64U U67C U80A	0.08
C23U A64U U69A	0.07
C23U A65G U72A	0.14
C23U A65G U78C	0.4
C23U C29A U43C A64G U66C U69A G73A	0
C23U C29U U51C	0.33
C23U C32U A35G U41C	0.05
C23U C32U U41C U60C U72C	0.11
C23U C34G U48C G55A	0.09
C23U C34U A64G G70A	0.05
C23U C37A A65G U80C	0.14
C23U C38U U54A A56G	0.11
C23U C44U A57G G70A	0.06
C23U C50A U51A	0.21
C23U G30A U49C	0.14
C23U G33U U60C A64G	0.05
C23U G36A A65U	0.09
C23U G52U A64G	0.35
C23U G52U U54C	0.53
C23U U25A U58A	0.11
C23U U25C A45U	0.19
